Laboratory results taken from the supplement of paper PMC10369915.
The other results are listed elsewhere or left out. No stated cut-off is given here; in the data, active = 3.2 or more and inactive = the rest. Only a few entries rise above the background.

How the values were obtained:
Experiment in all cases: enrichment score (SH2-bound / input frequency) (ratio); bacterial display of known human phosphotyrosine sites (pTyr-Var adds point mutants) read by sequencing; higher = stronger binding; tyrosines were phosphorylated by kinases first
Details in all cases: peptide library: Human pTyr
SHP2 C-SH2 domain E139D = molecular target: SHP2 C-SH2 domain E139D
[1] = molecular target: SHP2 C-SH2 domain wild-type
SHP2 N-SH2 domain L43F = molecular target: SHP2 N-SH2 domain L43F
SHP2 N-SH2 domain T42A = molecular target: SHP2 N-SH2 domain T42A
SHP2 N-SH2 domain T52S = molecular target: SHP2 N-SH2 domain T52S
[2] = molecular target: SHP2 N-SH2 domain wild-type
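Further: displayed peptides selected on beads carrying the immobilized SH2 domain, with library peptides lacking any tyrosine serving as negative controls.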

Binder | enrichment score (SHP2 C-SH2 domain E139D) | enrichment score [1] | enrichment score (SHP2 N-SH2 domain L43F) | enrichment score (SHP2 N-SH2 domain T42A) | enrichment score (SHP2 N-SH2 domain T52S) | enrichment score [2]
MDEKHPAYNSISKER [PGAM2_HUMAN_133_YA] | inactive: 0.853 | inactive: 0.754 | inactive: 1.05 | inactive: 0.741 | inactive: 0.853 | inactive: 0.821
VSSDGHEYIAVDPMQ [PGFRB_HUMAN_579_YA] | inactive: 0.556 | inactive: 0.452 | inactive: 0.609 | inactive: 0.718 | inactive: 0.49 | inactive: 0.56
DLHITPIYEGRTAAS [PKP4_HUMAN_415_YA] | inactive: 0.566 | inactive: 0.466 | inactive: 0.668 | inactive: 0.565 | inactive: 0.516 | inactive: 0.585
GAERNLLYEDAHRAG [ARGAL_HUMAN_152] | inactive: 0.553 | inactive: 0.475 | inactive: 0.578 | inactive: 0.5 | inactive: 0.641 | inactive: 0.62
GKAEFAEYASVDRNK [PHAG1_HUMAN_227] | inactive: 0.852 | inactive: 0.71 | inactive: 0.761 | inactive: 0.698 | inactive: 0.726 | inactive: 0.836
KQADTTQYVPMLERK [PGFRA_HUMAN_742] | inactive: 1.09 | inactive: 0.757 | inactive: 0.793 | inactive: 0.98 | inactive: 0.722 | inactive: 1
AQRLGLDYEERVLPS [PHB2_HUMAN_128_YA] | inactive: 0.608 | inactive: 0.646 | inactive: 0.528 | inactive: 0.576 | inactive: 0.494 | inactive: 0.653
ISPDGHEYIYVDPMQ [PGFRA_HUMAN_572] | inactive: 0.65 | inactive: 0.551 | inactive: 0.717 | inactive: 0.629 | inactive: 0.703 | inactive: 0.812
GLGMEGPYEVLKDSS [PHAG1_HUMAN_163] | inactive: 0.686 | inactive: 0.599 | inactive: 0.892 | inactive: 0.745 | inactive: 0.67 | inactive: 0.816
GVPMPDKYSLEPVAV [PGK1_HUMAN_76] | inactive: 0.565 | inactive: 0.545 | inactive: 0.642 | inactive: 0.744 | inactive: 0.645 | inactive: 0.743
GVPMPDKYSLAPVAV [PGK2_HUMAN_76] | inactive: 0.806 | inactive: 0.644 | inactive: 0.619 | inactive: 0.748 | inactive: 0.572 | inactive: 0.671
MDEKHPYYNSISKER [PGAM2_HUMAN_133] | inactive: 0.733 | inactive: 0.811 | inactive: 0.763 | inactive: 0.783 | inactive: 0.987 | inactive: 0.798
EAAEDIAYQLSRSRN [PHB_HUMAN_249] | inactive: 0.625 | inactive: 0.467 | inactive: 0.582 | inactive: 0.516 | inactive: 0.577 | inactive: 0.528
WDQEAQIYELVAQTV [ARHG1_HUMAN_738] | inactive: 0.818 | inactive: 0.768 | inactive: 0.815 | inactive: 0.681 | inactive: 0.654 | inactive: 0.86
KELGFKRYNSLSILP [PGFS_HUMAN_108] | inactive: 0.88 | inactive: 0.736 | inactive: 0.776 | inactive: 0.661 | inactive: 0.842 | inactive: 0.959
SEEPEPDYEAIQTLN [PHAG1_HUMAN_387] | inactive: 1.13 | inactive: 1.01 | inactive: 1.01 | inactive: 1.09 | inactive: 1.22 | inactive: 1.15
EGSFESRYQQPFEDF [PLCG1_HUMAN_1253] | inactive: 0.6 | inactive: 0.611 | inactive: 0.628 | inactive: 0.576 | inactive: 0.632 | inactive: 0.689
FTSIGEDYDERVLPS [PHB_HUMAN_114] | inactive: 0.492 | inactive: 0.476 | inactive: 0.519 | inactive: 0.669 | inactive: 0.646 | inactive: 0.614

Binder | enrichment score (SHP2 C-SH2 domain E139D) | enrichment score [1] | enrichment score (SHP2 N-SH2 domain L43F) | enrichment score (SHP2 N-SH2 domain T42A) | enrichment score (SHP2 N-SH2 domain T52S) | enrichment score [2]
DMKGDVKYADIESSN [PGFRB_HUMAN_763] | active: 3.98 | active: 8.88 | active: 3.9 | active: 16.2 | inactive: 2.7 | inactive: 1.12
IITEYCRYGDLVDYL [PGFRB_HUMAN_686] | inactive: 1.61 | inactive: 1.34 | inactive: 1.44 | inactive: 1.42 | inactive: 1.7 | inactive: 1.76
NQATEDVYQLEQQLH [PKD1_HUMAN_4237] | inactive: 0.92 | inactive: 0.617 | inactive: 0.877 | inactive: 0.712 | inactive: 0.843 | inactive: 0.824
YQRLGLDYEERVLPS [PHB2_HUMAN_128] | inactive: 0.603 | inactive: 0.775 | inactive: 0.505 | inactive: 0.503 | inactive: 0.425 | inactive: 0.719
NATTDFIYQLASEEG [PFKAP_HUMAN_651_YA] | inactive: 0.78 | inactive: 0.902 | inactive: 0.868 | inactive: 0.899 | inactive: 0.611 | inactive: 0.989
ALNTTATYAEPARPI [PKP4_HUMAN_478_YA] | inactive: 0.704 | inactive: 0.553 | inactive: 0.746 | inactive: 0.607 | inactive: 0.626 | inactive: 0.63
EPDYGALYEGRNPGF [PLCG1_HUMAN_775] | inactive: 0.6 | inactive: 0.386 | inactive: 0.507 | inactive: 0.358 | inactive: 0.41 | inactive: 0.484
EFDIEEDYTTDEDMV [PHF8_HUMAN_704] | inactive: 1.13 | inactive: 1.37 | inactive: 0.988 | inactive: 1.12 | inactive: 1.37 | inactive: 1.21
DKSSAHSYGGGGGGG [PERI_HUMAN_470] | inactive: 0.723 | inactive: 0.598 | inactive: 0.584 | inactive: 0.673 | inactive: 0.728 | inactive: 0.626
DIMRDSNYISKGSTF [PGFRB_HUMAN_857] | inactive: 0.783 | inactive: 0.655 | inactive: 0.529 | inactive: 0.874 | inactive: 0.609 | inactive: 0.727
SATKIALYETPTGWK [PGM1_HUMAN_353] | inactive: 0.972 | inactive: 0.867 | inactive: 0.888 | inactive: 1.09 | inactive: 0.967 | inactive: 0.871
SDIQRSLYDRPASAK [PGFRA_HUMAN_762_YA] | inactive: 0.809 | inactive: 0.675 | inactive: 0.916 | inactive: 0.812 | inactive: 0.797 | inactive: 0.835
AQYMGSGYTKAVYRV [PKDCC_HUMAN_148] | inactive: 0.718 | inactive: 0.873 | inactive: 1.09 | inactive: 0.759 | inactive: 0.916 | inactive: 0.951
ALNTTATYAEPYRPI [PKP4_HUMAN_478] | inactive: 0.646 | inactive: 0.487 | inactive: 0.682 | inactive: 0.639 | inactive: 0.681 | inactive: 0.633
KKDTETVYSEVRKAV [PECA1_HUMAN_713] | active: 7.27 | active: 13 | inactive: 0.947 | inactive: 1.04 | inactive: 1.19 | inactive: 0.969
SDGHEYIYVDPMQLP [PGFRB_HUMAN_581] | inactive: 0.813 | inactive: 0.673 | inactive: 0.831 | inactive: 0.891 | inactive: 0.667 | inactive: 0.861
IITEACRYGDLVDAL [PGFRB_HUMAN_686_YA] | inactive: 1.79 | inactive: 1.4 | inactive: 1.5 | inactive: 1.09 | inactive: 1.8 | inactive: 1.77
GARDSGAYWEVPPSE [ARAF_HUMAN_302_YA] | inactive: 0.678 | inactive: 0.627 | inactive: 0.726 | inactive: 0.666 | inactive: 0.726 | inactive: 0.619
